According to PMC4336329 (PLoS ONE, 2015):
Hit rate of the full screen: of about 310,000 compounds, about 14,000 (4.5%) showed an effect of 50% or more. Effects have a minus sign here. This is one part of the list.

target: human ether-à-go-go-related gene (hERG) potassium channel (human, UniProt Q12809); assay: primary screen, population patch clamp on CHO cells stably expressing hERG
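Also: peak tail current of the secondary pulse compared with the same well before compound.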

Chain of human ether-à-go-go-related gene (hERG) potassium channel (Q12809 whole entry, looked up): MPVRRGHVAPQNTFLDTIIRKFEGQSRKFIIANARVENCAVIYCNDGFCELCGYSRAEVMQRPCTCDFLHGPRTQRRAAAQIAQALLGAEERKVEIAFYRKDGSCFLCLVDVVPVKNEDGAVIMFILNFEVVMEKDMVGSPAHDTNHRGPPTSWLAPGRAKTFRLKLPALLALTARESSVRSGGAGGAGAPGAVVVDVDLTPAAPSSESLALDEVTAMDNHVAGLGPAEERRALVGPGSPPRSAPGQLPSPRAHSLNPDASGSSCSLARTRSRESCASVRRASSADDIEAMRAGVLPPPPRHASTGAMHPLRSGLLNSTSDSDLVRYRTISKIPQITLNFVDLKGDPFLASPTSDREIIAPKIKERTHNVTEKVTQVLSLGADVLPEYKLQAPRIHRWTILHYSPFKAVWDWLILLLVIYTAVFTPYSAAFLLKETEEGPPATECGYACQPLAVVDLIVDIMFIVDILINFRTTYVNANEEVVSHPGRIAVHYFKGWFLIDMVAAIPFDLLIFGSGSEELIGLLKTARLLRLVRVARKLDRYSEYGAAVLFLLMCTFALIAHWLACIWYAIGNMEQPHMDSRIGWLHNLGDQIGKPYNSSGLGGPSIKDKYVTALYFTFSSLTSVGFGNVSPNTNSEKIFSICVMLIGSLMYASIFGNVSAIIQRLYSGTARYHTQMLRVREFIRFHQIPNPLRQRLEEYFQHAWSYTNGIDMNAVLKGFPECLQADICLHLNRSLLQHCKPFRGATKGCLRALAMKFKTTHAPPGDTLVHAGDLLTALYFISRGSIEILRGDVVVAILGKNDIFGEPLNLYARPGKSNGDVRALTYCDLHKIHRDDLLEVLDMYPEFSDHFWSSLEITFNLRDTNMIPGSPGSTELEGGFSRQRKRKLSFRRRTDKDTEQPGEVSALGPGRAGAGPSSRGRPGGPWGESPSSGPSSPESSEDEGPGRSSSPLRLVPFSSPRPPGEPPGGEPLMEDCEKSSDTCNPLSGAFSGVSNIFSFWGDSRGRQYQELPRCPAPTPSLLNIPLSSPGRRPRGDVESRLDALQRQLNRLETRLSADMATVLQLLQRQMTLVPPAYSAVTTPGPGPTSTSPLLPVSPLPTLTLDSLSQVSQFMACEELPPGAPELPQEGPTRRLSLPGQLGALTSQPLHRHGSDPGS

SMILES	hERG current change (%, negative = inhibition) at 10uM [%]
COc1ccc(C(CNC(=O)c2ccc(NS(=O)(=O)c3ccc4c(c3)OCCO4)cc2)N(C)C)cc1 (centres unmarked)	-7.25
O=C(CN1CCN(Cc2ccc(Cl)cc2)C1=O)NCCCN1CCN(c2ccc(F)cc2)CC1	-81
CC(OC(=O)c1ccc2ccccc2n1)C(=O)Nc1ccc(N2CCOCC2)cc1 (centres unmarked)	-8.35
O=[N+]([O-])c1ccc(-c2ccc(C=Nc3cccc4ccccc34)o2)cc1	12.1
C/C(=N/Nc1ccccc1C(=O)O)c1cccs1	18.6
CSc1nnc(-c2ccc(S(=O)(=O)N3CCOCC3)cc2)n1CC1CCCO1 (centres unmarked)	-2.43
O=C(Nc1cnc2ccccc2c1)c1ccco1	8.78
C(=N\c1nc2ccccc2n1CCN1CCOCC1)/c1cccs1	-20.7
Cc1nc2c(c(=O)n1CCC1=CCCCC1)c1nc3ccccc3nc1n2/N=C/c1ccco1	-22
Cc1cccc(NC(=O)Nc2ccncc2)c1	17.4
Cc1cc(=O)cc(C)n1-c1ccc(Cl)cc1	15
CCN(CC)c1ccc(NC(=O)c2ccco2)c(C)c1	-4.43
Clc1ccccc1Cn1nnc2c(NCC3CC3)ncnc21	-10.9
CC(C)(C)C(=O)Cn1c(NCCCl)nc2ccccc21.Cl	-0.838
CC(C)c1ccccc1NC(=S)NN(Cc1ccccc1)c1ccccc1	8.79
Cc1cc(Br)ccc1N=C1NC(=O)CS1	1.03
O=C(c1nc2ccccn2c1CNCCCn1nnc2ccccc21)N1CCOCC1	-19.4
Cc1c(O)ccc2c3c(c(=O)oc12)CCCC3	-3.03
COc1ccc(-c2ccc(C(C)=O)cc2)cc1[C@H]1[C@H]2C=CC[C@@H](C)[C@@H]2C(=O)N1Cc1ccccc1	0.193

SMILES	hERG current change (%, negative = inhibition) at 10uM [%]
O=[N+]([O-])c1ccc(Cc2ccccn2)c([N+](=O)[O-])c1	-50.2
O=C(CC1Oc2ccccc2NC1=O)NCc1ccccc1 (centres unmarked)	-3.55
COc1ccc(C)cc1NC(=O)COC(=O)Cc1ccc(-c2ccccc2)cc1	-2.73
C=CCNC(=S)NNC(=O)c1cccn(Cc2cccc(Cl)c2)c1=O	-8.26
CC1=C(C#N)C(=O)NC(=O)/C1=C/c1ccc(-c2ccc(S(N)(=O)=O)cc2)o1	14.9
CC1CCCCC12NC(=O)N(CC(=O)Nc1ccccc1-c1ccccc1)C2=O (centres unmarked)	0.994
O=C(Cn1cc(C(F)(F)F)ccc1=O)NC1CCCC1	6.25
Cn1c(C(=O)NCCCN2CCc3ccccc3C2)cc2c(=O)n(C)c3ccccc3c21	-33.7
CCOc1ncccc1C(=O)Nc1ccc(F)c(Cl)c1	24.1
Cc1csc(NC(=O)CSc2nc(=O)[nH]c3c2CCCC3)n1	2.43
Cc1nnc(-c2cccc(Br)c2)c2cn(-c3cccc(Br)c3)nc12	0.9
Cc1cc(NC(=O)COC(=O)CCS(=O)(=O)c2ccc(Cl)cc2)no1	12.1
CC(C)(C)NC(=O)C(c1ccco1)N(C(=O)Cn1nnc(-c2ccc(F)cc2)n1)c1ccccc1F (centres unmarked)	-6.11
COc1ccccc1NC(=O)Cn1nc(Cc2cccnc2)c2ccccc2c1=O	-15.7
Cc1c(C)n(Cc2ccccc2)c2ccc(C(=O)OCCCN(C)C)cc12	-1.91
C#CCSc1nnnn1-c1ccc(OCC)cc1	-14.2
C=CCN(c1ccc(Cl)cc1)S(=O)(=O)c1cccc(C(=O)OCC(=O)N(C)C)c1	-27.7
COc1cccc(Sc2nc(-c3ccccc3)ncc2S(C)(=O)=O)c1	13.1
CC(C)N1CCC(NC(=O)Nc2ccccc2)CC1	4.73

SMILES	hERG current change (%, negative = inhibition) at 10uM [%]
CCCCn1c(N)c(N(Cc2ccccc2OC)C(=O)C(C)C)c(=O)[nH]c1=O	4.7
COc1ccc(C(=O)NN2C(=S)N(c3ccc(OC)cc3)C(=O)C2CC(N)=O)cc1 (centres unmarked)	15.3
CCCCN(CC)CCNC(=O)c1cn(CCOC)c(=O)c2c1c1ccccc1n2C	-24.7
Cc1ccccc1NC(=O)CN1C(=O)NC(C)(CCc2ccccc2)C1=O (centres unmarked)	22.2
C=C(C)C(=O)Nc1cccc(C2=NOC3(C2)C[C@H](C(N)=O)N(C(=O)C(c2ccccc2)c2ccccc2)C3)c1 (some centres unmarked)	-24.6
O=C(NCc1cccc(F)c1F)C1CCC(=O)N(C2CC2)C1 (centres unmarked)	15.1
CCOC(=O)c1c(-c2ccc(C)cc2C)csc1NC(=O)CSc1nnnn1C	-8.6
CS(=O)(=O)N1CCN(c2ccc(Cl)cc2[N+](=O)[O-])CC1	-13.4
CCSc1nc(N)nc(-c2cccs2)c1C#N	0.736
O=C(Nc1nncs1)C(Sc1ccccc1)c1ccccc1 (centres unmarked)	-8.99
CN(C)CCN(CC1CCCN(Cc2ccccc2F)C1)C(=O)Cc1c(F)cccc1F (centres unmarked)	-9.05
COC(=O)c1cccnc1-n1c(=O)c2cccnc2n(Cc2ccc([N+](=O)[O-])cc2)c1=O	-30.5
O=C(NCc1ccc2c(c1)OCO2)c1cccc(C(=O)NCc2ccc3c(c2)OCO3)c1	2.14
Cc1ccc(Cl)cc1-c1ccc(C=Nc2ccc(N3CCOCC3)cc2)o1	5.67
CCCCOC(=O)C1=C(C)NC(=O)NC1c1ccccc1 (centres unmarked)	6.12
O=C(NC1CCCCC1)c1cccs1	2.94
CCn1c(C(=O)NCc2cccnc2)cc2sc(Cl)cc21	-57.2
CN(C)C=O.COc1ccc(/C=C/c2nc3ccccc3c(=O)n2-c2cccc(C(=O)O)c2)cc1	4.31
